{
  "source": "paper PMC12136788",
  "binders": {"B1": {"name": "chr9:108846149:108846150:+_ENSMUSG00000025651_ENSMUST00000026743|mus_hu|FALSE|FALSE (ssRNA)", "RNA": "GGGAGUUCUACAGUCCGACGAUCGCUCCCGGGUGCUGUAGGCAUUAAGAUGGGCCCCCAUGCUCUCCACCUCCUUCUCCAGGGCACUGCCAGGCCGAUUCUUUGUUCCCUUGAAAGCCAGAUGCUCCAAAAAGUAGCCUGCCCCAACAGAGGAUUGAGCAUCA"}, "B2": {"name": "chr8:95500983:95500984:-_ENSG00000164944_ENST00000437199|hu_hu|hu_hu_hu_mus_True|88_108 (ssRNA)", "RNA": "GGGAGUUCUACAGUCCGACGAUCAGAAGGAUUUUUACGAGUAAAGGGAGCGUACAUACGGCCUCUACCACUGCCUCCACUAACAAACUUUCCUCUCGAGCCUCCACUGCCGCUAUUUGUACUAGCCCAGGACGGUCCCAGGCCCAACAGAGGAUUGAGCAUCA"}, "B3": {"name": "4844558_4844678_1027_CDS_ENSG00000120158_ENST00000381750|human|control|control (ssRNA)", "RNA": "GGGAGUUCUACAGUCCGACGAUCGUAGAUUUCCUCCAGCAGCAGCCGGGCACAGUUCCUGCCAAGGUCCUCUGGAAGUACUGCUGCUCCCUGGCCCUGGGGGUUGGAGGCCAGUUCAGCACUGAGGAAGGUGCCACUGGUGGUCAACAGAGGAUUGAGCAUCA"}, "B4": {"name": "27431529_27433284_1818_CDS_ENSG00000033867_ENST00000419036|human|control|control (ssRNA)", "RNA": "GGGAGUUCUACAGUCCGACGAUCACGGAGGUAUAUCAAAUCAGGCUGAUGCUUAGCAGGCAUUCCAAAUAAUUUUAUACGGUCAAAUAACUGGAUUCCUUUUAAUGAGGAAACUCCCAUAUAAAGGAAAACACCAUACAGAACCAACAGAGGAUUGAGCAUCA"}, "B5": {"name": "97312720_97312840_91_3pUTR_ENSMUSG00000021669_ENSMUST00000077672|mouse|control|control (ssRNA)", "RNA": "GGGAGUUCUACAGUCCGACGAUCCACCUGAACUCGGCCCCCUAGAUGCCAACCUCAGUCAGGGAGGGAGGAGGGGAGGAAGACGGGAAGAGCCAAGCCAACGGCAGAGACCCAGAUCCACUCACUCACACCUCCGCUACAGCCCAACAGAGGAUUGAGCAUCA"}, "B6": {"name": "chr19:8913615:8913616:-_ENSMUSG00000071658_ENSMUST00000096259|mus_hu|mus_mus_mus_hu_False|88_88 (ssRNA)", "RNA": "GGGAGUUCUACAGUCCGACGAUCAGGGUACCAAAACCUUCUGCCUGAGAUAGGUGCCCCACCCAGUAGGGAGUUGCAGCUGAAAGUAUCUGAUGCAGAAGCAGUGACUAUACGAAAGGAGGCCCCUGGGGAGGGCCAGGCCAGCAACAGAGGAUUGAGCAUCA"}, "B7": {"name": "chr14:76904430:76904431:+_ENSMUSG00000022010_ENSMUST00000022587|mus_mus|mus_mus_mus_hu_True|8_8 (ssRNA)", "RNA": "GGGAGUUCUACAGUCCGACGAUCUGCAGCCAAAAACACCCUCGUGGAAAAAAAGAGGGAACACCAGCAGCCUUGUAUAAGCUAGAUAAAAUCUUCUGGCUUUCCGCAGCCCAGGGAGAAACAGAAAUGGUGCUGGCUAAUUUACAACAGAGGAUUGAGCAUCA"}, "B8": {"name": "chr19:8913615:8913616:-_ENSMUSG00000071658_ENSMUST00000096259|mus_hu|mus_mus_mus_hu_False|78_98 (ssRNA)", "RNA": "B6 RNA with C37A, U38C, U39C, G46C, G48A, A51G, A64U, U66C"}, "B9": {"name": "chr5:22970553:22970554:+_ENSMUSG00000029004_ENSMUST00000094962|mus_hu|FALSE|FALSE (ssRNA)", "RNA": "GGGAGUUCUACAGUCCGACGAUCAGCACUGGAAGUUUCAUCAAAAUUAGGAGUGGUAAAUAUGCCUACUUCAUUUUUGCUAAUAAGGACUGAUGGAGGAGGGGAAGCCGGAGGUGUCGGAGGAGGACGAGCACCAUAAUUAUGCAACAGAGGAUUGAGCAUCA"}, "B10": {"name": "chr7:140404665:140404666:+_ENSG00000090266_ENST00000247866|hu_hu|hu_hu_hu_mus_False|28_38 (ssRNA)", "RNA": "GGGAGUUCUACAGUCCGACGAUCUGCUCCUACUCGUCCAGAGAGUUUACAGUGUCAGUCCUCGUCAUCAGGAGGGAUUCCCAGUUCUUCAUCUGUCCACUGGGAAGGAUCAGGAUAUGAAAAGUGACCCAGCACAGCAUCCGACAACAGAGGAUUGAGCAUCA"}, "B11": {"name": "chr14:22612544:22612545:+_ENSMUSG00000021770_ENSMUST00000119430|mus_mus|motif|central (ssRNA)", "RNA": "GGGAGUUCUACAGUCCGACGAUCAGCCAAAUGCAACGUAUCCAGGAGCCUGGGACAAAGUAUUCAUUUUCAUUCCAUAACGGCUGUAUAUUUAACAACAAACUCAUUACAGAGAGAGAGUCUUCAUCCAAUUAGUCUUUUCAUCAACAGAGGAUUGAGCAUCA"}, "B12": {"name": "chr4:115894766:115894767:+_ENSMUSG00000028698_ENSMUST00000030464|mus_hu|mus_mus_mus_hu_True|1_108 (ssRNA)", "RNA": "GGGAGUUCUACAGUCCGACGAUCUUCACACGGAAAUUGUACUUCGGGUUUUCCAACGGCCAGUACCAGUCCGGCCAAACUACCCGAACAGGGUCCUCCCCCUCUCUCCUACAGAACACAACAAAAUGCCCCCGAACCCCGAACCAACAGAGGAUUGAGCAUCA"}, "B13": {"name": "chr4:17845017:17845018:+_ENSG00000109805_ENST00000514176|hu_mus|hu_hu_hu_mus_False|78_98 (ssRNA)", "RNA": "GGGAGUUCUACAGUCCGACGAUCGCUCUCUUAACUUGAUCUUCAUUUAAGGAACUCGCAAGGUUAAAGUUUACUUUUCUGUAGCGCAGCUGUUUUGGCUCGUCUGGGUAAUCUCAUCUUCAUUUCUGAUGGUGGUUCAUGAUCCAACAGAGGAUUGAGCAUCA"}, "B14": {"name": "chr19:8913615:8913616:-_ENSMUSG00000071658_ENSMUST00000096259|mus_hu|mus_mus_mus_hu_False|1_18 (ssRNA)", "RNA": "GGGAGUUCUACAGUCCGACGAUCAGGGUACCAAAACCUUCUGCCUGAAAUGGGUGCCCCACCCAGUAGGGAGUUGCAGCUGAAAGUAUCUGAUGCAGAAGCAGUGACUAUACGAAAGGUCACUAGAGGGGAGGGCCCGAGAUCCAACAGAGGAUUGAGCAUCA"}, "B15": {"name": "chrX:71025408:71025409:-_ENSMUSG00000002010_ENSMUST00000052761|mus_mus|motif|central (ssRNA)", "RNA": "GGGAGUUCUACAGUCCGACGAUCGAAUACUGCAUACACAUGGCCAUAGUUGGCCCCAGCCACAAGGCCUGGGCCUCCAACGGGCCCUGCACAGACGUUGUUGACAAUGUUACCAUAGAGAUUAGGCAUCACCAUGACAUCAAACAACAGAGGAUUGAGCAUCA"}, "B16": {"name": "6509843_6513729_1012_CDS_ENSMUSG00000033768_ENSMUST00000113458|mouse|control|control (ssRNA)", "RNA": "GGGAGUUCUACAGUCCGACGAUCGUUAUCAAAGUUUCCUGCCGGGUACCUCUCGUUGACUGGCCAGCUGUCCACUUGCAAGGUGGCAUUGCCACCACUUCGAGUAAAGCGCACCACGUGAUAUUUGCCGUCGCUCACGAUGGCCAACAGAGGAUUGAGCAUCA"}, "B17": {"name": "chr5:68553883:68553884:+_ENSG00000134058_ENST00000256443|hu_hu|motif|central (ssRNA)", "RNA": "GGGAGUUCUACAGUCCGACGAUCUCCUUGAAGAGUCAUCAACAUGUAGGCUUUGAUGUGUGAUGGUGUCAGCACAAGACGGUUAUCCUUUAUUAUAACCUCUAGAUCAGUUUCCAUAAAAUCAAAGACAAGGCUAAUAUUAGACAACAGAGGAUUGAGCAUCA"}, "B18": {"name": "chr11:51804959:51804960:-_ENSMUSG00000020390_ENSMUST00000020657|perfect_dup|FALSE|FALSE (ssRNA)", "RNA": "GGGAGUUCUACAGUCCGACGAUCAUUUUGGAUAAAAACCUAACAGUUGGUGGUUUAUUUGGAUAUUCUUCAGAAAAUUCUAUUACUAGUUUAAAAGUACCAUCUUCAAAAGGUGUCCCUUCUGGUCCAAAUAUAACUGCAUUCCAACAGAGGAUUGAGCAUCA"}, "B19": {"name": "chr22:29966471:29966472:-_ENSG00000184117_ENST00000216121|hu_hu|FALSE|FALSE (ssRNA)", "RNA": "GGGAGUUCUACAGUCCGACGAUCGGUUUCCUUCUUGGACAGCAGGGUGGAGUGGGCAUCCUUCCGGGGAUCCACUUUGUGAACAAAGAGGGAGCGGAACCAGCUGCCUUCAUUGUCCUUGGAAUAGAAACGCGCCGCAGCUGCCAACAGAGGAUUGAGCAUCA"}, "B20": {"name": "106916261_106916381_7059_CDS_ENSMUSG00000040481_ENSMUST00000057892|mouse|control|control (ssRNA)", "RNA": "GGGAGUUCUACAGUCCGACGAUCGGGUUGCUGUCCAGGAGUCACUUGGGAUGGAGUUGAUGGACGUAUUCGAGUCAGUGGUGGACUCUGGACUCGAACAGGAGACUGUCCUUGUACACUGCUCUGAGGCUGACACUGUGUUGCCAACAGAGGAUUGAGCAUCA"}, "B21": {"name": "chr5:71493517:71493518:+_ENSG00000131711_ENST00000296755|hu_hu|motif|central (ssRNA)", "RNA": "GGGAGUUCUACAGUCCGACGAUCUUCUUUUAUUGGUGCAAAGUCUGUGCUUUUCCCUUCCUGUUUGUCUUGGUAAAGACGGGUAGAAGUCAUUUCAGAAACUGGACUUACUUGGUCUGGAGAGCCUUGUUUUCCACUCUUUUCCAACAGAGGAUUGAGCAUCA"}, "B22": {"name": "chr3:115528449:115528450:-_ENSG00000185565_ENST00000490035|hu_hu|FALSE|FALSE (ssRNA)", "RNA": "GGGAGUUCUACAGUCCGACGAUCCACACACGCACAGUGGAGAAAAUGAAAAUGGCACUUCCUAGCAUUUGCGGCAUGACUAGUGCUCUGGGGAGGGGGUGGAGGUGAGGAGAGGUGAGGGAGGAAAGGUGGGUGAAAAGGGAGCAACAGAGGAUUGAGCAUCA"}},
  "note": "Changes are numbered by the printed parent chain. Some of the results follow.",
  "data": [
    {"target": "T1, UNK ZnF1-3 (human, UniProt Q9C0B0 31-174)", "T1 sequence": "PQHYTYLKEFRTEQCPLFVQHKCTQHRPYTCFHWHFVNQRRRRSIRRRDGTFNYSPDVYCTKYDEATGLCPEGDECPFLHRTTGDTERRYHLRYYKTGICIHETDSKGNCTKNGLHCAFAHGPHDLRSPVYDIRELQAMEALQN", "experiment": "nsRBNS (natural sequence RNA bind-n-seq); RBNS binding buffer (assumed for nsRBNS): 25 mM Tris pH 7.5, 150 mM KCl, 3 mM MgCl2, 0.01% Triton X-100, 500 ug/ml BSA, 20 U/ml SUPERase-In, 4 C; UNK is unkempt and MSI1 is Musashi-1; names of the RNAs are library labels; protein concentration not given here; high values mean tight binding", "units": {"binding signal": "enrichment R"}, "values": [
      {"binder": "B1", "binding signal": 1.21},
      {"binder": "B2", "binding signal": 1.16},
      {"binder": "B3", "binding signal": 0.816},
      {"binder": "B4", "binding signal": 0.837},
      {"binder": "B5", "binding signal": 1.41},
      {"binder": "B6", "binding signal": 1.18},
      {"binder": "B7", "binding signal": 2.05},
      {"binder": "B8", "binding signal": 1.52},
      {"binder": "B9", "binding signal": 2.26},
      {"binder": "B10", "binding signal": 1.7},
      {"binder": "B11", "binding signal": 1.02},
      {"binder": "B12", "binding signal": 1.03},
      {"binder": "B13", "binding signal": 0.422},
      {"binder": "B14", "binding signal": 1.32},
      {"binder": "B15", "binding signal": 1.17},
      {"binder": "B16", "binding signal": 0.894},
      {"binder": "B17", "binding signal": 1.11},
      {"binder": "B18", "binding signal": 0.664},
      {"binder": "B19", "binding signal": 1.12},
      {"binder": "B20", "binding signal": 0.81},
      {"binder": "B21", "binding signal": 0.476},
      {"binder": "B22", "binding signal": 1.83}
    ]}
  ]
}
